From article PMC9260856
Results are given in words; binding and its absence hold for the method and conditions named. In cells and extracts the contact can be indirect. Some binding calls cover weakened binding; strength is not graded here. Tags and fused reporters may be left off the sequences shown.

How the values were obtained:
Assay in all cases: co-IP; SF-tagged bait affinity-purified on Strep-Tactin Sepharose from whole-cell lysates of transfected HEK293T cells (150 mM NaCl, 50 mM Tris pH 7.5, 0.4% Triton X-100, Benzonase), desthiobiotin elution, immunoblot; MLN4924 before collecting where indicated
[1] = biological target: T1, StrepII-FLAG-tagged ZXDA (SF-ZXDA), transfected in HEK293T cells (human) (UniProt P98168)
T1 sequence: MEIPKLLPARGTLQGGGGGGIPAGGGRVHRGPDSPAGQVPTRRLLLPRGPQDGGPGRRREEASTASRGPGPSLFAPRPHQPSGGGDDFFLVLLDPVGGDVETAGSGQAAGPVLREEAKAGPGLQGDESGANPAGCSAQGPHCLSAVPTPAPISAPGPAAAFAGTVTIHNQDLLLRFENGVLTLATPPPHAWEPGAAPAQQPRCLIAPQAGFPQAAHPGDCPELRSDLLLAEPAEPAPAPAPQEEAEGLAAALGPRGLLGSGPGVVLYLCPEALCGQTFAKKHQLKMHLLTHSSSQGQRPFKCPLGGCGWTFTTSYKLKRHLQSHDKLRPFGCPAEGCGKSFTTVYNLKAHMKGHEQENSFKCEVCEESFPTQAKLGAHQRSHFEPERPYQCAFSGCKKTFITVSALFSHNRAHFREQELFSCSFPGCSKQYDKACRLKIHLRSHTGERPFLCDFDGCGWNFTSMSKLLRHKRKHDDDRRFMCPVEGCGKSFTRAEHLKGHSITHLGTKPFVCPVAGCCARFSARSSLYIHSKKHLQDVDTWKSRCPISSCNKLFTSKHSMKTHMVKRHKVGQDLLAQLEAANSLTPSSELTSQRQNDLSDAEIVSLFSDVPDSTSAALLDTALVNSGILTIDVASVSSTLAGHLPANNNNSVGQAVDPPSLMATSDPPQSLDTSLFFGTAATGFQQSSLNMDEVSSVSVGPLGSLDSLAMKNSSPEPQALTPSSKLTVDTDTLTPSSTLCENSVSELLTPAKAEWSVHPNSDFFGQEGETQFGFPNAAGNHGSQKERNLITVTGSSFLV

[2] = biological target: T2, StrepII-FLAG-tagged wild-type FBXO38 (SF-FBXO38 WT), transfected in HEK293T cells (human) (UniProt Q6PIJ6)
T2 sequence: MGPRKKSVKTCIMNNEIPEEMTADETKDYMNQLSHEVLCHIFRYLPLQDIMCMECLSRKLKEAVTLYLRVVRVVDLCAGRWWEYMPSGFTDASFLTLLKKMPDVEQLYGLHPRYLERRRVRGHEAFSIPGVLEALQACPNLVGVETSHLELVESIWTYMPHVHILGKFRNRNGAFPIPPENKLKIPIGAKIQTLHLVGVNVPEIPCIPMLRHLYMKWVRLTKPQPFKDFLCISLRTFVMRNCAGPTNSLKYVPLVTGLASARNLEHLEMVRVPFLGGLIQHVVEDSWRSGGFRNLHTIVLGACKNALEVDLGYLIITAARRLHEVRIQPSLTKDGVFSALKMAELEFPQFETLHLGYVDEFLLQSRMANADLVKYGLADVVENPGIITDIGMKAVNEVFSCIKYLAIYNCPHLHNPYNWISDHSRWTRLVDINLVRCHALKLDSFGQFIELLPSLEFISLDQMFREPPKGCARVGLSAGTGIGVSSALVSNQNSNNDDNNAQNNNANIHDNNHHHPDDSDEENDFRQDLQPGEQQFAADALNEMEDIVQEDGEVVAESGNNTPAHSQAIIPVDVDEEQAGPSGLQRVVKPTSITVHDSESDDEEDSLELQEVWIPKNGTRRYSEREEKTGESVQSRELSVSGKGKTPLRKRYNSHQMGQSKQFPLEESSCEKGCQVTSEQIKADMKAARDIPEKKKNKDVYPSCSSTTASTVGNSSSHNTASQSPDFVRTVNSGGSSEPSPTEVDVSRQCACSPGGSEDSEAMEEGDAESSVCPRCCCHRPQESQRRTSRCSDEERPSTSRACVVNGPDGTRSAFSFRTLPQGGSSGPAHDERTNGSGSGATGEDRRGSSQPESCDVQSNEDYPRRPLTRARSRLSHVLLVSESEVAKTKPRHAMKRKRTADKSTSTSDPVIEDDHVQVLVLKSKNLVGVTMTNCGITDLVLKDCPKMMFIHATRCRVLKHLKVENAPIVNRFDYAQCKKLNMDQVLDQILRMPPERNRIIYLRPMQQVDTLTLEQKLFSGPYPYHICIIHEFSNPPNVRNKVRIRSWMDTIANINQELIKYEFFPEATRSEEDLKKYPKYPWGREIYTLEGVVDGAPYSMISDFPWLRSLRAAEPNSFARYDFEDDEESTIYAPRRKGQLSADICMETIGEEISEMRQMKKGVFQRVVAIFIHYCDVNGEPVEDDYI

[3] = biological target: T3, SF-tagged DEDD2, transfected in HEK293T cells (UniProt Q8WXF8)
T3 sequence: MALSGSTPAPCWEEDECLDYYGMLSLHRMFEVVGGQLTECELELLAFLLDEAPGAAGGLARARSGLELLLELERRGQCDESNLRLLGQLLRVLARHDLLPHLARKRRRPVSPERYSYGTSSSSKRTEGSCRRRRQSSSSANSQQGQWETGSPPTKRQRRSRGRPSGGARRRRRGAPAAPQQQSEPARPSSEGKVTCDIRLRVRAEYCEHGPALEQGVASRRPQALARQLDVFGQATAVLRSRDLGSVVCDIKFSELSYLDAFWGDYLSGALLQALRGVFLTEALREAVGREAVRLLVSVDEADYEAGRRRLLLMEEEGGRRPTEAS

B1: centromere protein B (CENP-B), endogenous in HEK293T cells (protein, UniProt P07199 1-599)
chain: MGPKRRQLTFREKSRIIQEVEENPDLRKGEIARRFNIPPSTLSTILKNKRAILASERKYGVASTCRKTNKLSPYDKLEGLLIAWFQQIRAAGLPVKGIILKEKALRIAEELGMDDFTASNGWLDRFRRRHGVVSCSGVARARARNAAPRTPAAPASPAAVPSEGSGGSTTGWRAREEQPPSVAEGYASQDVFSATETSLWYDFLPDQAAGLCGGDGRPRQATQRLSVLLCANADGSEKLPPLVAGKSAKPRAGQAGLPCDYTANSKGGVTTQALAKYLKALDTRMAAESRRVLLLAGRLAAQSLDTSGLRHVQLAFFPPGTVHPLERGVVQQVKGHYRQAMLLKAMAALEGQDPSGLQLGLTEALHFVAAAWQAVEPSDIAACFREAGFGGGPNATITTSLKSEGEEEEEEEEEEEEEEGEGEEEEEEGEEEEEEGGEGEELGEEEEVEEEGDVDSDEEEEEDEESSSEGLEAEDWAQGVVEAGGSFGAYGAQEEAQCPTLHFLEGGEDSDSDSEEEDDEEEDDEDEDDDDDEEDGDEVPVPSFGEAMAYFAMVKRYLTSFPIDDRVQSHILHLEHDLVHVTRKNHARQAGVRGLGHQS
**Q.** With B1 as the binder, how does the binding [1] read?
**A.** binds

**Q.** And the binding [2]?
**A.** no binding

**Q.** What about the binding [3] of the same binder?
**A.** no binding
